Measured values from PMC4107866.
Changes are numbered by the printed parent chain. Results are given in words; binding and its absence hold for the method and conditions named. Binding seen in cells or lysates may run through a third protein. Some binding calls cover weakened binding; strength is not graded here. Tags and fused reporters may be left off the sequences shown.

By UniProt entry, the sequences of proteins in these tests, tags left out.
UniProt Q9Y2Y4: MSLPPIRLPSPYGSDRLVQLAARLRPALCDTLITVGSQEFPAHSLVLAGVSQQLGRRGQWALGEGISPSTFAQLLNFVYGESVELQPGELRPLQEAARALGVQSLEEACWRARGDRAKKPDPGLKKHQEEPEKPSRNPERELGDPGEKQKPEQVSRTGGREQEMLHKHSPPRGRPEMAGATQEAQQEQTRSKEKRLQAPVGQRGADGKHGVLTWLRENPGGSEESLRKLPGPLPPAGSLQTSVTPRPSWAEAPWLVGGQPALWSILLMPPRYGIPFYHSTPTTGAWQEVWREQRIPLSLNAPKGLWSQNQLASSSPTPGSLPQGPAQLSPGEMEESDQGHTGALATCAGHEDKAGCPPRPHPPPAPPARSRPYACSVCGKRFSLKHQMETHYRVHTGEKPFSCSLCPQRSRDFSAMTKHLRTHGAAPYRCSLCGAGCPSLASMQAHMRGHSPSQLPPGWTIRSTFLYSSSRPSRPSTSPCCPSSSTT

B1: HA-LRR5 (fibromodulin) (protein, UniProt Q06828 19-376)
chain: QYEDDPHWWFHYLRSQQSTYYDPYDPYPYETYEPYPYGVDEGPAYTYGSPSPPDPRDCPQECDCPPNFPTAMYCDNRNLKYLPFVPSRMKYVYFQNNQITSIQEGVFDNATGLLWIALHGNQITSDKVGRKVFSKLRHLERLYLDHNNLTRMPGPLPRSLRELHLDHNQISRVPNNALEGLENLTALYLQHNEIQEVGSSMRGLRSLILLDLSYNHLRKVPDGLPSALEQLYMEHNNVYTVPDSYFRGAPKLLYVRLSHNSLTNNGLASNTFNSSSLLELDLSYNQLQKIPPVNTNLENLYLQGNRINEFSISSFCTVVDVVNFSKLQVLRLDGNEIKRSAMPADAPLCLRLASLIEI
B2: MYC-Ctb73 (protein, UniProt Q9H0C5 1-482)
chain: MASLGPAAAGEQASGAEAEPGPAGPPPPPSPSSLGPLLPLQREPLYNWQATKASLKERFAFLFNSELLSDVRFVLGKGRGAAAAGGPQRIPAHRFVLAAGSAVFDAMFNGGMATTSAEIELPDVEPAAFLALLRFLYSDEVQIGPETVMTTLYTAKKYAVPALEAHCVEFLTKHLRADNAFMLLTQARLFDEPQLASLCLDTIDKSTMDAISAEGFTDIDIDTLCAVLERDTLSIRESRLFGAVVRWAEAECQRQQLPVTFGNKQKVLGKALSLIRFPLMTIEEFAAGPAQSGILSDREVVNLFLHFTVNPKPRVEYIDRPRCCLRGKECCINRFQQVESRWGYSGTSDRIRFTVNRRISIVGFGLYGSIHGPTDYQVNIQIIEYEKKQTLGQNDTGFSCDGTANTFRVMFKEPIEILPNVCYTACATLKGPDSHYGTKGLKKVVHETPAASKTVFFFFSSPGNNNGTSIEDGQIPEIIFYT
B3: HA-LRR5-B/C (protein, UniProt Q06828 19-376)
chain: B1 chain with I312G, C316A

Assays:
MYC-Ctb73 (human) [1] = target: T1, MYC-Ctb73 (human) (UniProt Q9H0C5); assay: co-IP; two sequential immunoprecipitations from lysates co-expressing FLAG-TEV-Cul3, MYC-Ctb73 and HA-LRR5: FLAG beads, release by TEV protease, then MYC antibody; immunoblot for HA-LRR5
T1 sequence: B2 chain

FLAG-TEV-Cul3 (human) = FLAG-TEV-Cul3 (human) (UniProt Q13618); assay: as above
MYC-Ctb73 (human) [2] = target: T1, MYC-Ctb73 (human); assay: co-IP; HEK293 cells co-transfected with tagged proteins (FLAG-Cul3, MYC-BTB proteins, HA-CLWs); lysates in RIPA buffer, primary antibody then protein A-Sepharose, 1 hr each at 4°C, two washes with RIPA; immunoblot
FAZF (human) = FAZF (human) (UniProt Q9Y2Y4); assay: as above
PLZF (human) = target: T2, PLZF (human) (UniProt Q05516); assay: as above
T2 sequence: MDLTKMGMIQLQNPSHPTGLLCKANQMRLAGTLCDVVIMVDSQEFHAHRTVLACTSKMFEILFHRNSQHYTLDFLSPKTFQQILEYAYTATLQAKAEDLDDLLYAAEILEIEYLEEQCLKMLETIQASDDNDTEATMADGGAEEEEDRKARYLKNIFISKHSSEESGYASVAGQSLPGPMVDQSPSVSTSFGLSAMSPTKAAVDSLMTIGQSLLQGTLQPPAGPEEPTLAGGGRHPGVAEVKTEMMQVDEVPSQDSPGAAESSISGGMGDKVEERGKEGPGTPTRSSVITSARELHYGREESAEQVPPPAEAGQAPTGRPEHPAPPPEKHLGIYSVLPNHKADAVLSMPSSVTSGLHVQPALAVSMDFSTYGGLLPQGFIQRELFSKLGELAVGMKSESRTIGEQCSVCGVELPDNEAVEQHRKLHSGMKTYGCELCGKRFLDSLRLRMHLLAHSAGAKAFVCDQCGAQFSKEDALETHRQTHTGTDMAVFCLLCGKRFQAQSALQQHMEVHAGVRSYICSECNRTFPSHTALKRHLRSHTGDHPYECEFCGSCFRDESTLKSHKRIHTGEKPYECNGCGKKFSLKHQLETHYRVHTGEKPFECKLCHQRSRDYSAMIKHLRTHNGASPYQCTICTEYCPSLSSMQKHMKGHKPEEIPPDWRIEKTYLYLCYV

FLAG-Cul3Δ51-67 (human) = FLAG-Cul3Δ51-67 (human) (UniProt Q13618); assay: as above
FLAG-tagged Cul3 (human) = FLAG-tagged Cul3 (human) (UniProt Q13618); assay: as above
MYC-Ctb73Δ2-61 (human) = target: T3, MYC-Ctb73Δ2-61 (human) (UniProt Q9H0C5); assay: as above
T3 sequence: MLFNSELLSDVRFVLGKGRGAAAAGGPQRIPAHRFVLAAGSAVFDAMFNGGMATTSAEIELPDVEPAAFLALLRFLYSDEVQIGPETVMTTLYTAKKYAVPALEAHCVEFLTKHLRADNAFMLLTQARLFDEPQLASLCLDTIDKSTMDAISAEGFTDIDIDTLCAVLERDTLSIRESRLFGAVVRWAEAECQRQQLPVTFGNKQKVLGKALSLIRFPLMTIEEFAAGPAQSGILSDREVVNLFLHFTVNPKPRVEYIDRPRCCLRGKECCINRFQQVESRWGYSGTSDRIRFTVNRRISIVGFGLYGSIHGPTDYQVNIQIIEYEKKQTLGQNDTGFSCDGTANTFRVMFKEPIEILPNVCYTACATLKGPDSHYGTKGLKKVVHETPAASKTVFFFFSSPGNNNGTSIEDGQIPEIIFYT

Binder | binding (MYC-Ctb73 (human) [1]) | binding (FLAG-TEV-Cul3 (human)) | binding (MYC-Ctb73 (human) [2]) | binding (FAZF (human)) | binding (PLZF (human)) | binding (FLAG-Cul3Δ51-67 (human)) | binding (FLAG-tagged Cul3 (human)) | binding (MYC-Ctb73Δ2-61 (human))
B1 | binds | binds | binds | binds | no binding | binds | binds | 
B2 |  | binds |  |  |  | no binding | binds | 
B3 |  |  | binds |  |  | no binding | binds | no binding
